The target of assay [1] is T1, FLAG-tagged 5MP1 (FL-5MP1) (human, UniProt Q9Y6E2 1-419).
T1 sequence (looked up): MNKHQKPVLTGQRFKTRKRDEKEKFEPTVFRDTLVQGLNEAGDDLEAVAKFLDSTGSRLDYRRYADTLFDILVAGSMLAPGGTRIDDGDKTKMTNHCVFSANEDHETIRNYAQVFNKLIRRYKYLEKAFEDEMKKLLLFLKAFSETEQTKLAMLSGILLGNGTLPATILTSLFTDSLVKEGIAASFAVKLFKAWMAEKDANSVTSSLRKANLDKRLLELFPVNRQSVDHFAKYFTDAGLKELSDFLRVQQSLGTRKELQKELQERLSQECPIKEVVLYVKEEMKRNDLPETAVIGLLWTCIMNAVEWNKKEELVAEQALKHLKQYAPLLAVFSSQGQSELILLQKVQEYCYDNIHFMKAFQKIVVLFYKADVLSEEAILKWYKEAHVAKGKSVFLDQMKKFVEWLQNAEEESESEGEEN
Briefly: pull-down.

Another assay concerns the target recombinant human eIF5 (human, UniProt P55010). Briefly: pull-down.

One molecule from paper PMC3201852 (Nucleic Acids Research, 2011) can be followed below.

B1: GST-fused human eIF2β (GST-eIF2β) (natural protein)
chain: not shown
Turning to B1, the binding result (in assay [1]; with recombinant human eIF5) was “binds” in each case.
